Results on 42 compounds are retold here after PMC4336329 (PLoS ONE, 2015).

Molecules are shown by their SMILES. Among all 310,000 compounds or so, about 2,200 (0.71%) showed an effect of 50% or more. The effect is printed as a negative number. The list shows a part of the results.

human ether-à-go-go-related gene (hERG) potassium channel, sequence (Q12809 whole entry, looked up): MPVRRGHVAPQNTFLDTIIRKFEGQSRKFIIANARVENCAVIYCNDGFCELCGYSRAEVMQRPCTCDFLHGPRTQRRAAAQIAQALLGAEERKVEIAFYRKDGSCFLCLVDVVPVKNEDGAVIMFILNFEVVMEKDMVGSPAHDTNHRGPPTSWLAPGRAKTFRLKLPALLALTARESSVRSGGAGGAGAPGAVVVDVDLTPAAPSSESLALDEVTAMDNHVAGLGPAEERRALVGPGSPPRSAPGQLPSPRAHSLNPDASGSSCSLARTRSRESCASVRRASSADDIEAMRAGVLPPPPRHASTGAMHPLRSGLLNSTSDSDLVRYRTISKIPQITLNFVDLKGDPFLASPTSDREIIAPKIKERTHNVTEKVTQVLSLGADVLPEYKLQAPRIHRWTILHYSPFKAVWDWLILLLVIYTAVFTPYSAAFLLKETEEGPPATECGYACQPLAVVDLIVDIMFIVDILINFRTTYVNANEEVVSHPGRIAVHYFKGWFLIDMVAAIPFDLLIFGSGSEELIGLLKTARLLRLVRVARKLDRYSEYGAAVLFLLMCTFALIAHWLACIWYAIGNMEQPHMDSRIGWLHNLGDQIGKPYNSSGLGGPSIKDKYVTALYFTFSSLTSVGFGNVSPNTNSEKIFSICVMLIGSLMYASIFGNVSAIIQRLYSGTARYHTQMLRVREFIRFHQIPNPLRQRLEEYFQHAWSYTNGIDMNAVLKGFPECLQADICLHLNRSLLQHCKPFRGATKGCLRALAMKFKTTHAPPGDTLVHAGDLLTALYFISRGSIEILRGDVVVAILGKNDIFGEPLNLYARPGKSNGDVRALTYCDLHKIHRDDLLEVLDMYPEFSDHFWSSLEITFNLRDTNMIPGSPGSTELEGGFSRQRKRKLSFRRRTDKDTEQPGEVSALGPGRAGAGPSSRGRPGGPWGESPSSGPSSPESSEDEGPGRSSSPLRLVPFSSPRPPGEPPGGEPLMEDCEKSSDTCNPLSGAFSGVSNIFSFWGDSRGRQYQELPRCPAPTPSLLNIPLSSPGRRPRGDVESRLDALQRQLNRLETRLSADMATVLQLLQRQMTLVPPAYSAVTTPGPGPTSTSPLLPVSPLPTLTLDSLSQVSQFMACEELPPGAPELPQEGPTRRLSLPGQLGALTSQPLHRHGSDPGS

This assay addresses human ether-à-go-go-related gene (hERG) potassium channel (human, UniProt Q12809). As to the kind of experiment: primary screen, population patch clamp on CHO cells stably expressing hERG.
Take `C(=N\N1CCN(Cc2cccc3ccccc23)CC1)/c1cccs1`: the “hERG current change (%, negative = inhibition) at 1uM” value was determined as 4.6%.

Take `Cn1c2ccccc2c2nnc(SCC(=O)NCc3ccoc3)nc21`: the “hERG current change (%, negative = inhibition) at 1uM” value came to 10.4%.

`C#Cc1ccc([C@@H]2C=C(C(=O)Nc3ccccc3)O[C@H](OCC)[C@H]2CCCO)cc1`: the “hERG current change (%, negative = inhibition) at 1uM” value is -2.28%.

For the compound `CCCCCCSc1ccc([C@@H]2[C@H]3C(=O)N(C)C(=O)[C@H]3[C@]3(C(=O)OC)CCCCN23)cc1.O=C(O)C(F)(F)F`, the “hERG current change (%, negative = inhibition) at 1uM” value came to 1.84%.

Turning to `COc1ccccc1NC(=O)N(Cc1ccccc1)c1ccccn1`, the “hERG current change (%, negative = inhibition) at 1uM” value amounted to 17%.

On to `CN(C)c1ccc(C(=O)OCC(=O)Nc2ccc(S(N)(=O)=O)cc2)cc1`, for which the “hERG current change (%, negative = inhibition) at 1uM” value was determined as 14.2%.

On to `COc1ccccc1NC(=O)C(=O)NNC(=O)COc1ccc2ccccc2c1`, for which the “hERG current change (%, negative = inhibition) at 1uM” value was found to be 14%.

Regarding `COC(=O)c1cc(-c2c(-c3ccc4c(c3)OCO4)noc2-c2ccsc2)cc([N+](=O)[O-])c1`, the “hERG current change (%, negative = inhibition) at 1uM” value came out at 9.81%.

Turning to `O=C1CC(c2cccs2)CC(O)=C1C=NCCN1CCNCC1` (stereo not drawn), the “hERG current change (%, negative = inhibition) at 1uM” value is on record as -0.684%.

`COC(=O)Cn1c(=O)c2c(nc(Br)n2CC(=O)OC)n(C)c1=O`: the “hERG current change (%, negative = inhibition) at 1uM” value turned out to be 6.24%.

In the case of `CCC(C)[C@H](NS(=O)(=O)c1ccc(C)cc1)C(=O)N1CCC(C(=O)N2CCC(C(N)=O)CC2)CC1` (stereo partly drawn), the “hERG current change (%, negative = inhibition) at 1uM” value is 12%.

Regarding `COc1cccc(NC(=O)C2C3C=CC4(O3)C2C(=O)N(CCCN2CCCCC2)C4C(=O)NC2CCCCC2)c1` (stereo not drawn), the “hERG current change (%, negative = inhibition) at 1uM” value came to 8.34%.

Take `C#CCOCCOCCOCCNc1nc(N2CCN(C(=O)[C@H](Cc3cc4ccccc4[nH]3)n3cc([C@@H](N)CC(C)C)nn3)CC2)nc(N2CCN(C(=O)[C@H](Cc3cc4ccccc4[nH]3)n3cc([C@@H](N)CC(C)C)nn3)CC2)n1.Cl`: the “hERG current change (%, negative = inhibition) at 1uM” value is 14.7%.

With `O=C(NS(=O)(=O)Oc1cccc(F)c1)OC[C@@H]1CCCN2CCCCC12` (stereo partly drawn), the “hERG current change (%, negative = inhibition) at 1uM” value is on record as 10.8%.

As to `Nc1ccc(NC(=O)CCN2CCOCC2)cc1`, the “hERG current change (%, negative = inhibition) at 1uM” value is given as 10.3%.

Consider `COc1ccc(C(=O)O/N=C(/c2ccccc2)c2ccncc2)cc1`, for which the “hERG current change (%, negative = inhibition) at 1uM” value amounted to 2.76%.

On to `Cc1ccc2c(c1)c1c(n2CC(O)CNC(CO)(CO)CO)CCCC1` (stereo not drawn), for which the “hERG current change (%, negative = inhibition) at 1uM” value turned out to be 9.51%.

Turning to `Cc1ccc(OCC(=O)N/N=C\c2cccn2C)c([N+](=O)[O-])c1`, the “hERG current change (%, negative = inhibition) at 1uM” value is recorded as 11%.

In the case of `O=C(c1ccc([N+](=O)[O-])cc1)N(Cc1ccccc1)c1ccccn1`, the “hERG current change (%, negative = inhibition) at 1uM” value is listed as 8.64%.

As for `O=C(Nc1nccs1)C1CCN(S(=O)(=O)c2c(Cl)cccc2Cl)CC1`, the “hERG current change (%, negative = inhibition) at 1uM” value is listed as 12.1%.

For `COc1ccc(C(=O)NCC(=O)N2CCCC(C)C2)cc1OC` (stereo not drawn), the “hERG current change (%, negative = inhibition) at 1uM” value is on record as 4.01%.

Consider `O=C(NCc1ccco1)c1ccccc1Br`, for which the “hERG current change (%, negative = inhibition) at 1uM” value is on record as 9.86%.

For the compound `Cc1nc([N+](=O)[O-])c(Br)n1CC(=O)c1ccc(Cl)cc1`, the “hERG current change (%, negative = inhibition) at 1uM” value was -0.392%.

As to `CC(C)(C)C(=O)NC(=S)Nc1cc(C(F)(F)F)ccc1N1CCOCC1`, the “hERG current change (%, negative = inhibition) at 1uM” value came to 10.6%.

For `COC(=O)N/N=C/c1cc(Cl)c(OCc2ccccc2F)c(OC)c1`, the “hERG current change (%, negative = inhibition) at 1uM” value is 4.61%.

For `CC1CCC(NC(=O)c2cc(S(=O)(=O)N3CCCCC3)c[nH]2)CC1` (stereo not drawn), the “hERG current change (%, negative = inhibition) at 1uM” value came to 6.23%.

Turning to `O=C(O)C1C(C(=O)Nc2ccc(Cl)cc2)C2C=CC1C21CC1` (stereo not drawn), the “hERG current change (%, negative = inhibition) at 1uM” value is reported as 13.5%.

Regarding `Cc1cc(NS(=O)(=O)c2ccc(NC(=O)c3cc4cc(Br)ccc4oc3=O)cc2)no1`, the “hERG current change (%, negative = inhibition) at 1uM” value is 6.01%.

Consider `O=C(c1cc(-c2ccc(Cl)cc2)n(-c2ccc(Cl)cc2Cl)n1)N1CCOCC1`, for which the “hERG current change (%, negative = inhibition) at 1uM” value is -40.7%.

Regarding `CC(C)C(=O)Nc1ccccc1Cc1ccccc1`, the “hERG current change (%, negative = inhibition) at 1uM” value turned out to be 7.22%.

Regarding `COc1ccc(N(Cc2cc(=O)[nH]c3ccccc23)C(=O)CCl)cc1`, the “hERG current change (%, negative = inhibition) at 1uM” value was 14.5%.

For `Cc1ccn2c(-c3n[nH]c(=S)n3Cc3ccccc3)c(C)nc2c1`, the “hERG current change (%, negative = inhibition) at 1uM” value amounted to 1.74%.

For the compound `NS(=O)(=O)c1ccc(N=Nc2ccc(=O)[nH]c2O)cc1`, the “hERG current change (%, negative = inhibition) at 1uM” value is 18.2%.

In the case of `Cc1ccc(S(=O)(=O)Nc2ccc3c(c2)CCC3)cc1C`, the “hERG current change (%, negative = inhibition) at 1uM” value is on record as 0.0445%.

As for `CCN(CC)S(=O)(=O)c1ccc(C(=O)NCc2ccc3[nH]c4c(c3c2)CCCC4)cc1`, the “hERG current change (%, negative = inhibition) at 1uM” value was determined as 16.4%.

As to `Cn1nc2c3ccccc3n(Cc3ccc(F)cc3)c2nc1=S`, the “hERG current change (%, negative = inhibition) at 1uM” value is on record as 13.2%.

With `COc1cc(OC)c(S(=O)(=O)NC(C)C)cc1C(=O)O`, the “hERG current change (%, negative = inhibition) at 1uM” value came out at 6.73%.

For `C=CCn1cc(C(=O)NCCCOC)c(=O)c2cc(S(=O)(=O)N3CCC(C)CC3)ccc21`, the “hERG current change (%, negative = inhibition) at 1uM” value is reported as -1.87%.

Take `CC1(C)CC(=O)C(Sc2nnc(-c3ccc(NS(C)(=O)=O)cc3)n2Cc2ccco2)C(=O)C1`: the “hERG current change (%, negative = inhibition) at 1uM” value amounted to 16.5%.

In the case of `Cc1ccc(C(C)C)cc1S(=O)(=O)NCc1cccnc1`, the “hERG current change (%, negative = inhibition) at 1uM” value is listed as 16.6%.

Consider `Cc1ccc2cc(CN(CC3CCCO3)C(=O)NC3CCCCC3)c(=O)[nH]c2c1C` (stereo not drawn), for which the “hERG current change (%, negative = inhibition) at 1uM” value is 2.18%.

Turning to `O=C(CN1CCCCCC1=O)N1CCN(S(=O)(=O)c2cccs2)CC1`, the “hERG current change (%, negative = inhibition) at 1uM” value turned out to be 15.7%.
